# Among all 360,000 compounds or so, about 6,000 (1.7%) were called active. The shares of active, inactive and inconclusive entries below differ from those in the screen. The call rests on the fitted dose curve; in most records, active means well fitted cell-killing curve with a large enough effect; inconclusive means small, poorly fitted or top-dose-only effect, or effect the other way; inactive means flat fitted curve, though single readings scatter. Potencies of inconclusive entries are left out as doubtful fits.
# Assay: qHTS for induction of synthetic lethality in tumor cells producing 2HG: qHTS for the HT-1080-NT fibrosarcoma cell line;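 further: NT is the 2HG producing partner of a matched IDH1 knockdown line; nearly all actives have a fitted effect of over 55% in size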;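 on activity, negative = less viability: 0% = DMSO-treated cells and -100% = media-only wells without cells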
# Conditions: HT-1080-NT fibrosarcoma viability, CellTiter-Glo ATP luminescence, 48 h; activity, negative = less viability: at 46.1 µM (top of the series) unless noted
# Procedure, shortened: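 HT-1080-NT fibrosarcoma cells (2HG-overproducing), 750 cells/well in RPMI with 5% FBS, dosed after 2 h and incubated 48 h at 37C. CellTiter-Glo luminescence normalized to DMSO and no-cell wells; concentration-response curves fitted and classed.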
# Potency means the concentration at half of the fitted maximal effect; tags describe the fitted curve by direction and shape.
SMILES,Potency,"activity, negative = less viability"
C=CCN=c1scc(-c2ccc3c(c2)NC(=O)CO3)n1/N=C(\C)c1ccccn1,"inconclusive [cytotoxic, partial curve, poor fit]",–
C=CCn1c(=O)c(C(=O)Nc2ncccc2C)c(O)c2ccccc21,"inconclusive [cytotoxic, single point]",–
CCCN(Cc1cc2cc(OC)ccc2[nH]c1=O)C(=O)c1ccncc1,"inconclusive [cytotoxic, partial curve]",–
CSc1cccc(CN2CCC(Oc3ccc(C(=O)N4CCCCC4)cc3)CC2)c1,"inconclusive [cytotoxic, single point]",–
C=CCNC(=O)C1CC(=O)N(c2ccc(OCC(=O)Nc3ccc(Cl)c(C(F)(F)F)c3)cc2)C1 (stereo not drawn),"inconclusive [cytotoxic, single point]",–
O=C(CSc1nc(Cc2ccccc2)nc2ccccc12)Nc1ccc2c(c1)OCCO2,"inconclusive [cytotoxic, single point]",–
COC(=O)c1cc(C)[nH]c2c(C)cc3nc4ccccc4c3c12,"inconclusive [cytotoxic, single point]",–
O=C(c1ccc(Cl)cc1)C1CCCN(Cc2cccn2-c2ccccn2)C1 (stereo not drawn),active: 16.4 µM,–
Cc1ccc2nc(-c3ccccc3)cn2c1,active: 11.6 µM,–
CC1CSC(N(C(=O)c2ccc(S(C)(=O)=O)cc2)c2ccc(Cl)cc2)=N1 (stereo not drawn),–,inconclusive: -31.3% [cytotoxic]
Cc1cccc2c1N(CCOc1ccc(C(C)(C)C)cc1)C(=O)C2=O,"inconclusive [cytotoxic, single point]",–
CCC(c1nnnn1-c1c(C)cccc1C)N1CCCN(Cc2ccc(F)cc2)CC1 (stereo not drawn),"inconclusive [cytotoxic, single point]",–
CC(C)(C)C1CCC(C(=O)Nc2ccc(N3CCOCC3)cc2N2CCOCC2)CC1 (stereo not drawn),–,inactive: -0.464%
CCCn1c(SCC(=O)N2N=C3/C(=C/c4ccc(OC)cc4)CCCC3C2c2ccc(OC)cc2)n[nH]c1=O (stereo not drawn),active: 7.31 µM,–
COc1cc(C=C2C(=O)C=CC2=O)ccc1O,active: 14.6 µM,–
Cc1ccc(-c2csc(NCCc3nc4cc(Cl)c(Cl)cc4n3CCOCCO)n2)cc1,"inconclusive [cytotoxic, single point]",–
CCC(C(=O)NC(C)(C)C)n1c(-c2cccc(NC(C)=O)c2)nc2ccccc21 (stereo not drawn),–,inactive: -1.81%
C/C(=C/c1oc2ccc(O)cc2c1[N+](=O)[O-])N(C)C,"inconclusive [cytotoxic, single point]",–
COc1ccccc1C(=O)Nc1ccc2c(c1)CCCN2C(=O)c1cccs1,"inconclusive [cytotoxic, single point]",–
O=C(Nc1ccc(F)c(F)c1)C1=COCCO1,–,inactive: -6.47%
COc1ccc(/C=C2/C(=O)ON=C2c2ccccc2)cc1OC,"inconclusive [cytotoxic, single point]",–
COC(=O)c1ccc(-c2nc3ccccc3[nH]2)cc1,"inconclusive [cytotoxic, single point]",–
Cc1ccc(C(=O)O)cc1N1C(=O)c2cccc3c([N+](=O)[O-])ccc(c23)C1=O,active: 16.4 µM,–

SMILES,Potency,"activity, negative = less viability"
COc1ccc(-n2c(SCC(=O)Nc3ccc(C(N)=O)cc3)nc3c([nH]c4ccccc43)c2=O)cc1OC,"inconclusive [cytotoxic, single point]",–
Cc1ccccc1N(C(=O)Cc1c[nH]c2ccccc12)C(C(=O)NC1CCCCC1)c1ccco1 (stereo not drawn),"inconclusive [cytotoxic, single point]",–
C[C@H]1CN([C@@H](C)CO)C(=O)c2cccc(NC(=O)Nc3ccc(C(F)(F)F)cc3)c2O[C@@H]1CN(C)C(=O)Nc1ccc(F)cc1,"inconclusive [cytotoxic, single point]",–
Cc1ccc(-n2nnnc2SC(C)C(=O)Nc2ccc(Cl)cn2)cc1 (stereo not drawn),"inconclusive [cytotoxic, single point]",–
COc1ccc(C)cc1NC(=O)CSc1nnc(COc2ccc(C)cc2)n1Cc1ccco1,"inconclusive [cytotoxic, single point]",–
CC(CNC(=O)CCS(=O)(=O)c1ccc2c(c1)NC(=O)CO2)c1ccccc1 (stereo not drawn),–,inactive: -0.191%
O=C(NCc1ccccc1)C1=C[C@@H](C2CCCCC2)C[C@@H](OCCCCO)O1,"inconclusive [cytotoxic, partial curve]",–
COc1ccc(N2C(=O)CC(Sc3nnnn3-c3ccc(F)cc3)C2=O)cc1 (stereo not drawn),active: 16.4 µM,–
O=C(COc1ccc(Br)cc1CNC1CCCC1)Nc1ccccc1,"inconclusive [cytotoxic, single point]",–
CCCNC(=O)c1nn2c(C(F)(F)F)cc(-c3ccccc3)nc2c1Cl,"inconclusive [cytotoxic, single point]",–
Cc1cccc(OCC(=O)Nc2c3c(nn2C(C)(C)C)CS(=O)(=O)C3)c1,–,inactive: 22.7%
COc1ccccc1C(=O)Nc1cccc2nc(C)ccc12,"inconclusive [rising, single point]",–
Cc1cc(N2CCCC2=O)cc(C)c1S(=O)(=O)NCCOc1ccc(C(C)(C)C)cc1,"inconclusive [cytotoxic, single point]",–
CC(=O)Oc1ccc(C#C/C=C2\c3ccccc3C(=O)N2c2ccccc2)cc1,–,inactive: -22.3%
N#CC1=C(N)N(c2ccccc2)C(c2ccccc2)C1(C#N)C#N (stereo not drawn),–,inactive: -17.5%
CC(C)C(CCNC1CCN(C)CC1)c1ccc(Cl)cc1 (stereo not drawn),"inconclusive [cytotoxic, single point]",–
O=C(Nc1ccccc1F)c1ccc(CN2CCN(c3ccccc3)CC2)cc1,"inconclusive [cytotoxic, single point]",–
CCCCN(C(=O)/C=C/c1ccc(OC)cc1)C1CCS(=O)(=O)C1 (stereo not drawn),–,inactive: 1.89%
N#Cc1cc2c(=O)n3ccccc3nc2n(Cc2ccco2)c1=NC(=O)c1ccco1,"inconclusive [cytotoxic, partial curve]",–
O=C(NC(Nc1nc2ccc([N+](=O)[O-])cc2s1)(C(F)(F)F)C(F)(F)F)c1ccccc1,active: 5.17 µM,–
CCOC(=O)C(C)NC(=O)CCc1nnc2ccc(N3CCCCC3)nn12 (stereo not drawn),–,inactive: 13.7%
COc1ccc(N2CCN(C(=O)C3CCN(S(=O)(=O)c4c(C)noc4/C=C/N(C)C)CC3)CC2)cc1,"inconclusive [cytotoxic, single point]",–
Oc1c(CN2CCCCC2)cc(COCc2ccccc2)c2cccnc12,active: 7.31 µM,–

SMILES,Potency,"activity, negative = less viability"
O=c1c(Cc2ccc(Cl)cc2Cl)c(O)ccn1Cc1ccc(Cl)cc1,"inconclusive [cytotoxic, single point]",–
CCc1ccn2cc(-c3cc(-c4ccccc4)no3)nc2c1,"inconclusive [cytotoxic, single point]",–
Cc1ccsc1/C=N/NC(=O)c1ccc(Cn2cc(Br)cn2)o1,–,inactive: 0.496%
CCOc1ccc(-c2[nH]ncc2Oc2ccccc2OCC)c(O)c1,"inconclusive [cytotoxic, single point]",–
C[C@H]1O[C@@H](O[C@H]2[C@@H](O)C[C@H](O[C@H]3[C@@H](O)C[C@H](O[C@H]4CC[C@@]5(C)[C@H](CC[C@@H]6[C@@H]5C[C@@H](O)[C@]5(C)[C@@H](C7=CC(=O)OC7)CC[C@]65O)C4)O[C@@H]3C)O[C@@H]2C)C[C@H](O)[C@@H]1O,active: 0.231 µM,–
Cn1nc(C(C)(C)C)cc1NC(=O)C1(C)CCN1C(=O)c1ccccc1CCc1ccccc1 (stereo not drawn),"inconclusive [cytotoxic, single point]",–
OC(CCN1CC2CCC(CC2)C1)(Cc1ccccc1)c1ccco1 (stereo not drawn),–,inactive: -0.903%
CC(C)CN(CC(C)C)S(=O)(=O)N1CCC(C(=O)NCc2cccs2)CC1,–,inactive: 7.01%
COc1ccc2nc(NC(=O)c3ccc([N+](=O)[O-])o3)sc2c1,"inconclusive [cytotoxic, partial curve]",–
CC(=O)OC1C(=O)N(Cc2ccccc2)C1c1ccc(C)cc1 (stereo not drawn),–,inactive: 2.35%
CCOc1ccc(NS(=O)(=O)c2ccc(C(=O)NCc3ccncc3)cc2)cc1,–,inactive: -0.506%
CCOC(=O)c1c(NC(=O)CSc2nnc(-c3c[nH]c4ccccc34)n2CCOC)sc2c1CCCC2,"inconclusive [cytotoxic, partial curve]",–
Cc1ccc(-c2cnc(C(O)c3cc(F)cc(Cl)c3)[nH]2)cc1 (stereo not drawn),"inconclusive [cytotoxic, single point]",–
CCCCc1ccc(NS(=O)(=O)c2cccc(C(=O)N3CCNC(=O)C3)c2)cc1,–,inactive: -2.31%
Cc1cc(Cl)ccc1C(O)c1ncc(-c2cccc(C(F)(F)F)c2)[nH]1 (stereo not drawn),"inconclusive [cytotoxic, single point]",–
CN(C)CCNC(=O)/C(=C/c1ccc(-c2ccc(Cl)cc2Cl)o1)NC(=O)c1ccccc1,"inconclusive [cytotoxic, single point]",–
Cc1ccccc1/C=C\c1nc2ccccc2c(=O)[nH]1,active: 16.4 µM,–
CC(Sc1nc(N2CCOCC2)nc(N2CCOCC2)n1)C(=O)Nc1ccccc1 (stereo not drawn),–,inactive: -1.75%
COc1ccc(S(=O)(=O)N2CCc3ccccc32)cc1NC(C)=O,active: 9.2 µM,–
Oc1cccc(C(O)CNCc2ccc(OCc3ccc(Cl)cc3Cl)cc2)c1 (stereo not drawn),active: 23.1 µM,–
COc1ccccc1Cc1c(-c2ccc(C)cc2)nc2c(C)cc(Br)cn12,"inconclusive [cytotoxic, single point]",–
Clc1ccc(C2=Nn3c(nnc3-c3n[nH]c4c3CCC4)SC2)cc1,active: 5.8 µM,–

# Reference: PubChem BioAssay AID686970 (National Center for Advancing Translational Sciences (NCATS), 2013)
